The record followed here is PubChem BioAssay (Tox21).

Assay [1] in a line: qHTS assay to identify small molecule antagonists of the progesterone receptor (PR) signaling pathway - cell viability counter screen (AID 1346798). Note: nearly all actives have a fitted effect of over 50% in size. An outline of the steps: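 HEK293T PR-UAS-bla, 2% charcoal-stripped FBS; 4 hr pre-plate; cpd + R5020, 16 h 37C; LiveBLAzer read first; then CellTiter-Glo 30 min RT, luminescence.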
Assay [2] can be described thus: qHTS assay to identify small molecule agonists of the constitutive androstane receptor (CAR) signaling pathway - cell viability counter screen (AID 1224836). Note: nearly all actives have a fitted effect of over 45% in size. The procedure, abridged:
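HepG2-CYP2B6-hCAR, 2500 cells/well, 4 h pre-incubation; cpd 15 conc + PK11195 0.75 uM final; 23 h, 37 C/5% CO2; CellTiter-Fluor, fluorescence.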

A short description of assay [3]: qHTS assay to identify small molecule antagonists of the constitutive androstane receptor (CAR) signaling pathway - cell viability counter screen (AID 1224837). Note: nearly all actives have a fitted effect of over 45% in size. An outline of the steps:
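HepG2-CYP2B6-hCAR cells, 2500/well, 4 hr pre-incubation; compound titration, 15 conc.; CITCO 50 nM final; 23 hr, 37 C/5% CO2; CellTiter-Fluor, fluorescence intensity.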
A general note: Quantitative high-throughput screening tests each substance at several concentrations.

The nature of assay [4]: qHTS assay to identify small molecule antagonists of the glucocorticoid receptor (GR) signaling pathway - cell viability counter screen (AID 720693). Note: nearly all actives have a fitted effect of over 55% in size.
The nature of assay [5]: qHTS assay to identify small molecule antagonists of the androgen receptor (AR) signaling pathway using the MDA cell line - cell viability counter screen (AID 743041; note: nearly all actives have a fitted effect of over 45% in size). An outline of the steps:
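Viability counter screen run alongside the AR antagonist reporter: cells seeded 5 h before compound, R1881 added, 16 h incubation at 37C without CO2, fluorescent CellTiter-Fluor signal quantified.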

Assay [6] in a line: qHTS assay to identify small molecule antagonists of the peroxisome proliferator-activated receptor gamma (PPARg) signaling pathway - cell viability counter screen (AID 743194). Note: nearly all actives have a fitted effect of over 55% in size. An outline of the steps: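 PPARg-UAS-bla HEK293H cells were plated, rested 5 h at 37 C, then treated with compounds plus rosiglitazone (50 nM final) for 17 h at 37 C; viability was then read by CellTiter-Glo luminescence after 30 min at room temperature.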

A short description of assay [7]: A CellTox Green Cytotoxicity Assay to monitor cytotoxicity in HEK293 cells - 24 hour (AID 1224875). Note: nearly all actives have a fitted effect of over 45% in size. An outline of the steps:
(§1)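 Nonlytic real-time cytotoxicity: HEK293 + CellTox Green reagent plated, 5 h preincubation, pintool compound addition (23 nL in DMSO), 37 C for 40 h, fluorescence measured at successive time points.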

Assay [8] is described as follows: A CellTox Green Cytotoxicity Assay to monitor cytotoxicity in HEK293 cells - 16 hour (AID 1224888). Note: nearly all actives have a fitted effect of over 35% in size. An outline of the steps: as §1
Assay [9] is described as follows: qHTS assay for identifying genotoxic compounds that show differential cytotoxicity against isogenic chicken DT40 cell lines with known DNA damage response pathways - Rev3 mutant cell line (AID 743014). Note: nearly all actives have a fitted effect of over 55% in size.

Inconclusive results are not listed. Calls come from the whole dose curve; as a rule, active = well fitted curve in the direction sought with a large enough effect in the repeat runs; inconclusive = weak or mixed curves; inactive = no such curve, though single readings can be large; an effect the other way counts as inactive or inconclusive. Where a structure was tested more than once in an assay, its records may differ in their call. Certain results were filed several times, with different values. Only these are listed. An entry can have further records. The records of an entry are repeats (runs, samples, wells, individuals or studies). What stands in brackets tells the records apart. Letters hold for one entry only. Additions like (4×) say how often a value occurs here.
% is set by controls: 0 for no effect and ±100 for the full control effect; potency is the fitted concentration of half-maximal effect.

As to `C=CC1(C)OC(=O)N(c2cc(Cl)cc(Cl)c2)C1=O` (stereo not drawn), the Potency entry in [1] is “active: 48.3 µM [sample A] and inactive [sample B]”.
Regarding `C[C@H]1CCCC(=O)CCC/C=C/c2cc(O)cc(O)c2C(=O)O1`, the Potency result is “active: 52.5 µM [sample A] and inactive [sample B]” in assay [2]; “active: 52.5 µM [sample A] and inactive [sample B]” in [3].
Consider `O=C1C2CC=CCC2C(=O)N1SC(Cl)(Cl)Cl` (stereo not drawn), for which the Potency result in assay [4] is “inactive [sample A] and inactive [sample B] and active: 12.1 µM [sample C]”; in assay [5], “active: 22.1 µM [sample A] and inactive [sample B] and active: 23.9 µM [sample C]”; in assay [2], “inactive [sample A] and active: 26.9 µM [sample B]”; in [3], “inactive [sample A] and active: 19 µM [sample B]”; in [1], “inactive [sample A] and active: 60.1 µM [sample B]”.
Regarding `ClC1=C(Cl)C2(Cl)C(CBr)CC1(Cl)C2(Cl)Cl` (stereo not drawn), the Potency result in [6] was “active: 43.6 µM [sample A] and inactive [sample B]”; in assay [7], “active: 54.9 µM [sample A] and inactive [sample B]”; in assay [8], “active: 54.9 µM [sample A] and inactive [sample B]”.
With `CC(C)(C)c1cc(O)ccc1O`, the Potency result in assay [4] is “inactive (3×) and active: 21.3 µM [separate samples]”; in assay [9], “inactive and active: 6.68 µM, 38.6 µM, 7.7 µM [separate samples]”.
